In all, about 33,000 sequences were measured (“E-score (-0.5 to 0.5)”: median about -0.043, highest 2% from about 0.37 on). The list shows a part of the results.
What follows are sequences tested against T1, Upc2 (UniProt Q12151) (assay: PBM E-score (8-mer binding enrichment) (E-score (-0.5 to 0.5)); higher = stronger / more preferred TF binding; most listed sequences are background and not binding sites). Details: protein concentration: 200 nM; construct: GST-full length.
T1 sequence: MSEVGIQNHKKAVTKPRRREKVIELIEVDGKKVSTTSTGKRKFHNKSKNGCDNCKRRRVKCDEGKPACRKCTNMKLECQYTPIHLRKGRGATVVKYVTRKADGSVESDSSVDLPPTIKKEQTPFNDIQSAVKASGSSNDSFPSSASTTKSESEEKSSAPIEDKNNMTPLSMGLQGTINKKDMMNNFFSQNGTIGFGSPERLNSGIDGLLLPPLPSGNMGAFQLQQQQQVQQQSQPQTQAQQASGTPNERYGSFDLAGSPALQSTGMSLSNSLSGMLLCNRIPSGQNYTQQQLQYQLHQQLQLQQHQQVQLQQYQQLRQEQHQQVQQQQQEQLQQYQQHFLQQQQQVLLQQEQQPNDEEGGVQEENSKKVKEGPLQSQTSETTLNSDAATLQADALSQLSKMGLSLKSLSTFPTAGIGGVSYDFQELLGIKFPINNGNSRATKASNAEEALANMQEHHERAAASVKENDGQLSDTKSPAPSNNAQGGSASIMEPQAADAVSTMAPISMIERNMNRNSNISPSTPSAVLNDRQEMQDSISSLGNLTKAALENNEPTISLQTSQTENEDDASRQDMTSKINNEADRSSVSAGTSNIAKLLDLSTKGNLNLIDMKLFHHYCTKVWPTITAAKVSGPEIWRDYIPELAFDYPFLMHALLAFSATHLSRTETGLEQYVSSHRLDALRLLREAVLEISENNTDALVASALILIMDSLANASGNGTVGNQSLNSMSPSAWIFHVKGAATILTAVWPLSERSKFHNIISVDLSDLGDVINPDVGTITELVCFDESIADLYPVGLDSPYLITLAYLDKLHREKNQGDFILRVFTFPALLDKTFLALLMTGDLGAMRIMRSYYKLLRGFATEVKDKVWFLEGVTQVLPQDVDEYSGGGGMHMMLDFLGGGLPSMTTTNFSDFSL
Summary of the method: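 Bound GST-tagged yeast transcription factors, applied at about 100-200 nM to double-stranded universal all-10-mer Agilent arrays, were detected with fluorescent anti-GST. Scans were normalised with masliner. A modified Wilcoxon-Mann-Whitney statistic, the E-score, was assigned to each ungapped eight-base word pooled with its reverse complement by the Universal PBM Analysis Suite.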

Sequence | PBM E-score
AGCGTCCC | -0.159
GAATAAAC | 0.135
CATTCGGG | -0.124
AGCAAGTG | -0.273
ACTAGCTC | 0.103
GCGCGTCA | -0.0954
CCGTCTCA | -0.226
AATTTATA | 0.234
CATGAAGG | -0.00415
ATTGGAGG | -0.157
CCGTCGCA | 0.111
CAATACGG | 0.196
AAGGCCTT | 0.101
ATGCGACC | 0.254
CGACTACC | -0.0187
GCATCCAA | -0.276
CTTGTTAC | -0.0553
ATGGTTAA | -0.0265
ACCGGTCC | -0.299
AGCAGACC | -0.0454
AAGTCGTG | -0.0736
GACTAACA | 0.121
CCTCTGTA | 0.0279
GAGGTAGC | 0.0116
ACAAAACG | 0.133

Sequence | PBM E-score
AATAGTGT | 0.0638
CGGTCACA | 0.0569
CCTATGCC | -0.13
CACGGCCA | -0.314
TGCGGTAA | 0.125
GGAGGGGA | -0.134
GCCAACAA | -0.136
CCAGCAAG | -0.121
CAAGATCC | -0.0814
GAGAACTA | 0.00901
CACCCAAG | 0.127
TCATAGCA | -0.203
CCGACGAG | 0.1
CGGGGCAG | 0.131
CTTGAATC | -0.0151
CTGGAGGA | -0.284
AACCTAGG | -0.138
GCCGGGAA | -0.0419
AAACGACG | 0.476
CAGCATCC | -0.146
GATCCTGA | 0.0221
CCGAGGGC | 0.094
TACCCCCA | -0.076
CGTGCTGA | -0.0663
AGCCTTAC | 0.00944

Sequence | PBM E-score
GGTTAAAA | 0.133
CTACTACC | -0.0579
TGCCTTAA | 0.14
ACACGTAA | 0.165
CACACTGA | -0.162
ATATAGGG | -0.121
GTCGCCCA | -0.125
GTGATGTA | 0.132
GGGAGACC | -0.234
AACCCGCC | 0.0828
CTCACGCC | 0.0188
GTACAGAA | 0.191
AATCGATC | 0.0238
GCAAGTAC | 0.0344
GAAAGGGC | -0.26
AAGACAAG | -0.0929
CTTGTCAC | -0.158
CGTGGGTA | -0.187
CTGAGTCC | -0.2
AGATGTGG | -0.097
AGCATGAC | -0.215
CCTAAACA | -0.063
ATATCCAA | -0.0675
CCGAGCGC | 0.196
AATTGTTC | 0.125

Sequence | PBM E-score
TAGTCTAA | -0.0448
TTCTCCAA | -0.0332
GCAAGGCC | -0.139
CGCTAACG | 0.282
AACCTATC | -0.0765
AAAGCTCT | -0.0987
CTTGGCTC | -0.131
AGCGGAGG | -0.133
GGCGTTAC | -0.0441
ACCTTAGG | -0.264
ACGTAGGC | 0.0415
AGATACCG | 0.0191
CTTACATA | -0.0528
CAATCGTC | -0.144
ACGAAGGG | 0.287
CCGTCACA | -0.132
TACTTTCA | -0.123
CCCTACTC | -0.0198
AATCTACA | 0.0784
AGTGACAC | -0.0216
CCCCCTTA | -0.148
AGCTTGAC | -0.102
GAATCACA | -0.219
CCGTATCG | 0.319
CCGCGCAG | 0.0562

Sequence | PBM E-score
GGGCCACA | -0.0724
CCGTCGTC | 0.0861
ATTCGCGC | 0.0674
CAGACGAG | 0.23
CGCTTAAC | 0.355
AGAAGCCC | -0.1
CATAGGTC | -0.0923
GGGCCCCA | -0.259
CAAGTACG | 0.267
AGTCCTCA | -0.296
ATCCTGCA | -0.239
CGCAGACG | 0.116
GACCGATC | -0.0542
ATTGAATG | -0.0017
AAGGTCCA | -0.0241
GTGTTGAA | 0.001
CCAAATGC | -0.237
AGTACTAT | 0.0865
ATTACTCA | -0.153
ACTATGCC | -0.178
CCCTGCGG | -0.147
AACACTCT | -0.108
ACAATGTC | -0.0552
AAAAGTGG | -0.0592
ATCCGCCG | 0.00363

Sequence | PBM E-score
AGTTGTTA | -0.105
AAGCGTGT | -0.116
AGCCAGTG | 0.00163
TCGGGTCA | 0.0854
CGCTATAA | 0.187
CGCATAGA | 0.158
AAACGCTT | 0.156
TCTTAACA | 0.0357
CACTTGAA | -0.0225
AGGAGCAT | -0.227
AGTTAACC | -0.00421
CGAGACGC | 0.0677
AATACATT | -0.0263
CGTGACTA | -0.103
CTAATCGA | 0.272
AATACCGA | 0.096
ACTCTGAA | -0.087
AGATAAGA | 0.0794
CTTACAGA | -0.17
AGCGCAGC | -0.0126
CAATGCAG | -0.225
CCCGATGA | -0.0985
TATGGCGA | 0.0496
ATAGAGAA | -0.0905
CAGTCAAA | 0.126

Sequence | PBM E-score
ACAGGCAC | -0.00991
CGGGTTCA | -0.0299
CATATAAC | 0.0255
ACCCCACT | 0.101
ACAGTATG | 0.0307
AGTCCACA | -0.111
CACTTCCA | -0.0511
AGCGCCTC | -0.108
AAAGCAAC | 0.00844
AACAGTCG | 0.0536
GGGGATAA | -0.0271
CCCTTCGC | -0.101
ACTCCGGG | -0.0707
TCTAGCCA | -0.0821
AAATGTAT | 0.0534
CAAGCCGA | -0.00778
GGTCTTCA | -0.237
AACATTAT | 0.00065
CAGATGTA | -0.341
AAGCACAG | -0.167
ACATTGCG | 0.0405
AACACCCA | -0.161
